# Source: PubChem BioAssay AID624172 (National Center for Advancing Translational Sciences (NCATS), 2012)
# Hit rate of the full screen: of about 380,000 compounds, about 25 (0.007%) were called active. This list was built around the results that the source calls inconclusive (neither active nor inactive); the mix of calls is not that of the screen. The call rests on the fitted dose curve; in most records, active means well fitted activation curve with a large enough effect; inconclusive means small, poorly fitted or top-dose-only effect; inactive means no such curve, though single readings can be large or run the other way. No potency is given beside an inconclusive call; the fits are too rough.
# Molecular target: Glucagon-like peptide 1 receptor (Homo sapiens) (UniProt P43220)
# Test: qHTS of GLP-1 Receptor Agonists; on activation: % of control where 0% means no effect
# Settings: HEK293 GLP-1R CRE-luciferase, luminescence, 4-6 h, cells express a hypersensitive GLP-1R form; activation: at 45.6 µM (top of the series) unless noted
# Potency means the concentration at half of the fitted maximal effect; tags describe the fitted curve by direction and shape.
# UniProt P43220, sequence (P43220 whole entry, looked up): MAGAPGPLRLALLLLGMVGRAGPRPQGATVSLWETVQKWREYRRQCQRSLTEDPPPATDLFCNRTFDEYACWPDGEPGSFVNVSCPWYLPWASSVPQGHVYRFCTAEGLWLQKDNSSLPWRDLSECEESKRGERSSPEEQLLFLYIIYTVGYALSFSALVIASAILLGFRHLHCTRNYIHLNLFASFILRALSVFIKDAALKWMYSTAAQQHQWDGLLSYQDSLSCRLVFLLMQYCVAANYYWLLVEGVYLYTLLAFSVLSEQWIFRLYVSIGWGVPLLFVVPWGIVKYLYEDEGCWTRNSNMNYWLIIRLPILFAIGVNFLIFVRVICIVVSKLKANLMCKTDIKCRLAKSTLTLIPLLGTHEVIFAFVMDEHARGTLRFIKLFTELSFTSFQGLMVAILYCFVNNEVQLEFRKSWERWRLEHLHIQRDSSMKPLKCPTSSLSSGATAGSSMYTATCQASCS
SMILES,Potency,activation
CC(C)(C)N/C=C(\C#N)S(=O)(=O)c1ccc(Br)cc1,inactive,–
COc1cc2c(cc1OC)CN(C(=O)c1ccc(N3CCCC3)c([N+](=O)[O-])c1)CC2,"inconclusive [activator, partial curve]",–
COc1cc(-c2cnc3c(NC=O)cc(-c4ccsc4)cn23)cc(OC)c1OC,"inconclusive [activator, partial curve, poor fit]",–
COC(=O)c1c(-c2cccs2)csc1NC(=O)c1cccnc1,"inconclusive [activator, single point]",–
Cc1cc(C(=O)COC(=O)c2ccc3c(c2)OCO3)c(C)n1Cc1cccs1,inactive,–
COc1ccc(CSc2nnnn2-c2ccccc2)cc1,"inconclusive [activator, single point]",–
COc1cc(C(=O)O)c2c(c1C)OC(=O)c1c(C)cc(O)c(C=O)c1O2,inactive,–
Brc1ccc(-c2csc(N3CCOCC3)n2)cc1,inactive,–
O=C(CCCn1c(=S)[nH]c2cc3c(cc2c1=O)OCO3)N1CCc2ccccc2C1,inactive,–
COc1ccc(-c2oc3ccc(N4CCOCC4)cc3c2C#CC2(O)CCCCC2)cc1,"inconclusive [activator, partial curve, poor fit]",–
COc1ccc(CC(=O)Nc2cccc(-c3ccc4nnc(C)n4n3)c2)cc1OC,"inconclusive [activator, partial curve, poor fit]",–
Cc1ccc(OCCOc2cccc3ccc(C)nc23)c([N+](=O)[O-])c1,"inconclusive [activator, single point]",–
O=C1NC2c3c(I)sc(I)c3C(=O)C2O1 (stereo not given),inactive,–
N#Cc1nc(-c2ccccc2F)oc1NCc1cccc2c1OCO2,"inconclusive [activator, single point]",–
CC(C)Nc1nc(NC(C)C)nc(N(C)n2cnnc2)n1,"inconclusive [activator, partial curve, poor fit]",–
N#Cc1sc2nc3c(cc2c1N)CCCC3,"inconclusive [activator, partial curve, poor fit]",–
COc1cccc(-c2ncc3ccccc3c2COC(=O)N2CCCCC2)c1,"inconclusive [activator, single point]",–
Cc1nc(N2CCOCC2)c2c(C)c(C(=O)Nc3ccccc3C(F)(F)F)sc2n1,"inconclusive [activator, partial curve, poor fit]",–
COc1cc2c(cc1OC)C(CC#N)=NC(C)(C)C2,"inconclusive [activator, partial curve, poor fit]",–
COc1cc2c(cc1OC)C1=C(C#N)CCC(=O)N1CC2,"inconclusive [activator, partial curve, poor fit]",–
COc1ccc(CN(C)C(=O)c2ccc3ccccc3n2)cc1F,"inconclusive [activator, partial curve, poor fit]",–
COc1ccc2nc3cccc(OC)c3nc2c1,"inconclusive [activator, partial curve, poor fit]",–
CCOCCCn1c(SCC(=O)Nc2cc(OC)ccc2OC)nc2ccccc2c1=O,"inconclusive [activator, single point]",–
COC(=O)c1ccc(OCC2c3cc(OC)c(OC)cc3CCN2C(=O)Cc2ccccc2)cc1 (stereo not given),"inconclusive [activator, partial curve, poor fit]",–

SMILES,Potency,activation
COc1ccc(-c2cc(NC=O)c3ncc(-c4cnn(C)c4)n3c2)cc1,"inconclusive [activator, partial curve, poor fit]",–
O=c1c2cccnc2[nH]c(=S)n1CCCN1CCN(c2ccc(F)cc2)CC1,inactive,–
CN(C)CCNC(=O)c1ccc(-c2cn3c(-c4ccc(Oc5ccccc5)cc4)cnc3cn2)cc1,"inconclusive [activator, single point]",–
CN1/C(=C\C=O)C(C)(C)c2ccccc21,inactive,–
Clc1ccc(SCCOCCN2CCOCC2)cc1,inactive,–
CCOC(=O)c1c(C)c(C(=O)OCC)n(C)c1C,"inconclusive [activator, partial curve, poor fit]",–
COc1ccc(Nc2nc(Cl)nc(Nc3ccc(OC)cc3OC)n2)c(OC)c1,"inconclusive [activator, single point]",–
Nc1nc(-c2cccnc2)nc2sc3c(c12)CCCC3,"inconclusive [activator, partial curve, poor fit]",–
OC(COc1c(Br)cc(Br)cc1Br)CN1CCOCC1 (stereo not given),"inconclusive [activator, partial curve, poor fit]",–
Cc1ccc(OC(C)C(=O)Nc2ncc(Cl)cc2Cl)c([N+](=O)[O-])n1 (stereo not given),"inconclusive [activator, single point]",–
O=C(Nc1cccc(C(F)(F)F)c1)OCc1ccncc1,"inconclusive [activator, single point]",–
CCn1c(=O)cc(OCC(=O)N2CCN(C(=O)c3ccco3)CC2)c2ccccc21,"inconclusive [activator, single point]",–
CC(=O)NC(C)(c1ccccc1)c1nc(-c2cnc3ccccc3c2)cs1 (stereo not given),"inconclusive [activator, single point]",–
CCCCN(C(=O)C1CC(=O)N(Cc2ccc(C)cc2)C1)c1c(N)n(CCCC)c(=O)[nH]c1=O (stereo not given),inactive,–
CC(=O)c1cccc(Nc2nc(=O)c3cccnc3s2)c1,"inconclusive [activator, partial curve, poor fit]",–
COc1ccc(C(=O)N/N=C/c2ccccc2OC(=O)c2ccccc2)cc1,"inconclusive [activator, partial curve, poor fit]",–
Nc1ncnc(Oc2ccccc2F)c1[N+](=O)[O-],–,inconclusive: 35.4% [activator]
CC(=O)Cc1nsc(NC(=O)c2c(-c3ccccc3Cl)noc2C)n1,inactive,–
C=CCn1c(SCc2cc(=O)n3ccsc3n2)nc2scc(C3CC3)c2c1=O,"inconclusive [activator, partial curve]",–
O=[N+]([O-])c1ccc(Cc2nnc(-c3ccccc3Cl)o2)cc1,"inconclusive [activator, partial curve, poor fit]",–
O=C(CSc1ccccc1)Nc1ccc(-c2nc3ccccc3[nH]2)cc1,inactive,–
COc1ccc(CCN2C(=O)CCC3=C2CCCC3=O)cc1OC,inactive,–
CCCS/C(N)=N/N=C/c1ccccc1O,"inconclusive [activator, full curve]",–
COC(=O)C1=C(CN2CCc3ccccc32)NC(=O)NC1c1cc(C)ccc1C (stereo not given),inactive,–

SMILES,Potency,activation
C=CCNc1nc(N)c([N+](=O)[O-])c(NCc2ccccc2)n1,"inconclusive [activator, partial curve]",–
CCCCN1C(=S)NC[C@@H]1Cc1cccc2ccccc12,inactive,–
O=C(Nc1nc(-c2ccc(F)cc2)cs1)c1cnccn1,inactive,–
CCOC(=O)C(C)Sc1ccc2nnc(-c3ccc(F)cc3)n2n1 (stereo not given),inactive,–
COC(=O)c1ccccc1NC1OC(=O)c2ccccc21 (stereo not given),inactive,–
O=C1CN(c2nc(-c3cccnc3)nc3sc4c(c23)CCCC4)CCN1,"inconclusive [activator, partial curve]",–
CCN(CC)C(=O)CSc1nc(N)c2c3c(sc2n1)CC(C)CC3 (stereo not given),"inconclusive [activator, partial curve, poor fit]",–
Cc1ccc(CNC(=O)COC(=O)c2cnc(C)cn2)cc1,"inconclusive [activator, single point]",–
CCOC(=O)c1c(C)n(-c2ccccc2)c2ccc(OCCN(C)C)cc12,"inconclusive [activator, single point]",–
CC(C)C1C(=O)N(Cc2cn(CCC3OCCO3)nn2)CCS(=O)(=O)N1Cc1ccc(-c2ccc(Cl)cc2)cc1 (stereo not given),inactive,–
Cc1nc(-c2ccc([N+](=O)[O-])cc2)c(-c2ccccc2)o1,"inconclusive [activator, partial curve, poor fit]",–
CC1(C)Cc2c(sc3c2C(=O)N(c2ccccc2)C2=NCCCN23)CO1,"inconclusive [activator, single point]",–
COCCSc1nnc(NC(=O)C2CCCCC2)s1,"inconclusive [activator, partial curve, poor fit]",–
Cn1c(=O)oc2cc(S(=O)(=O)Nc3ccc(F)cc3)ccc21,inactive,–
COc1ccc(Cl)cc1NC(=S)NCc1cccs1,inactive,–
Cc1cc(-c2ccc(F)cc2)nc2cc(C(N)=O)nn12,inactive,–
COc1ccc(C2c3ccc(O)cc3Oc3ncn4nc(-c5cccnc5)nc4c32)cc1OC (stereo not given),"inconclusive [activator, partial curve, poor fit]",–
N#Cc1nc(Cc2ccccc2)oc1NCc1ccccc1,"inconclusive [activator, partial curve]",–
COc1cccc(OCCNc2cc(N3CCOCC3)ccc2[N+](=O)[O-])c1,"inconclusive [activator, full curve]",–
CC(=O)Nc1sc2c(c1C#N)CCCCC2,"inconclusive [activator, single point]",–
Cc1ccccc1Nc1c([N+](=O)[O-])ccc2nonc12,"inconclusive [activator, partial curve, poor fit]",–
Cc1nn2c(N3CCN(C)CC3)cc(C(C)(C)C)nc2c1-c1ccccc1,"inconclusive [activator, partial curve, poor fit]",–
